Measurements from PubChem BioAssay AID1508649 (National Center for Advancing Translational Sciences (NCATS), 2021).
Hit rate of the full screen: of about 43,000 compounds, about 830 (1.9%) were called active. Inconclusive means that the source gave no clear call. Such entries were picked first, then a sample of the others. How the source made its calls: active means clear falling dose curves in both reporters; inconclusive means both reporters move, but less clearly or upward; inactive means either reporter flat; the % is the NLuc reporter signal. Potencies of inconclusive entries are left out as doubtful fits.

experiment: Cell-based coincidence reporter assay to measure PMP22 gene transcription in S16 Pmp22-F2sN cells - Primary screen; conditions: S16 Pmp22-F2sN Schwann cells (luciferase reporters placed in the Pmp22 gene), FLuc/NLuc coincidence luminescence, 24 h; measured here: NLuc reporter readout, at 57.5 µM (top of the series)
How it was run: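 Transcriptional readout in edited S16(c9) cells: two luciferases reported from the Pmp22 locus, measured in turn after 24 h compound incubation.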
Potency means the concentration at half of the fitted maximal effect; tags describe the fitted curve by direction and shape.

Row | SMILES | Potency
1 | Cc1ccc(Nc2c(-c3ccc(N4CCOCC4)cc3)nc3c(C)cccn23)cc1 | inactive
2 | COc1ccc(OC)c(NC(=O)c2c(NCc3ccc(OC)c(OC)c3)sc3c2CCC(C)C3)c1 (configuration not stated) | inconclusive [phenotype inactive, single point]
3 | O=c1c2c3c(sc2n(Cc2ccccc2F)c(=O)n1-c1ccc(Cl)cc1)CCCC3 | active: 10 µM
4 | COc1cc(NC(=O)CN2C(=O)C(c3ccc(Cl)cc3)=NC23CCCCC3)cc(OC)c1 | inconclusive [phenotype inactive, single point]
5 | COc1ccccc1Cn1c(C2CC(=O)N(c3ccccc3OC)C2)nc2ccccc21 (configuration not stated) | inconclusive [phenotype inactive, single point]
6 | Cc1cc(C)cc(NC(=O)CN2C(=O)c3ccccc3Sc3ccc(C(=O)N4CCCC4)cc32)c1 | inconclusive [phenotype inactive, single point]
7 | CCOC(=O)c1c(C)oc2ccc(N(C(=O)c3ccncc3)S(=O)(=O)c3ccc(F)cc3C)cc12 | inconclusive [phenotype inactive, single point]
8 | O=C(O)CCC(=O)N1CCc2cc(S(=O)(=O)NCc3ccc(F)cc3)ccc21 | inactive
9 | CCOC(=O)C1CCN(C(=O)C2CCN(S(=O)(=O)c3c(C)noc3/C=C/c3ccc(C)cc3)CC2)CC1 | inconclusive [phenotype inactive, single point]
10 | COc1cccc(NC(=O)N(Cc2cn(C)c3ccccc23)C2CCCCC2)c1 | active: 10 µM
11 | Cc1cc(Nc2ccccc2Cl)n2nc(-c3ccco3)nc2n1 | inactive
12 | COc1cc(C2C(C(=O)OC(C)C)=C(C)N=C3SCCC(=O)N32)ccc1OCc1ccccc1 (configuration not stated) | active: 20 µM
13 | COc1ccccc1N1CCN(S(=O)(=O)CCNC(=O)COc2ccc(F)cc2)CC1 | inconclusive [phenotype inactive, single point]
14 | O=C(NCC1CCN(Cc2cccc(F)c2)CC1)c1cc2ccc3cccnc3c2[nH]1 | inconclusive [phenotype inactive, single point]
15 | C=Cc1ccc(CSc2nc(-c3ccccc3C)nc3c2Cc2c(CO)cnc(C)c2O3)cc1 | inconclusive [phenotype inactive, partial curve, poor fit]
16 | Cc1ccccc1CNC(=O)CCCn1c(=O)c2cccn2c2ccccc21 | active: 15.6 µM
17 | CC(CNC(=O)c1ccc(CSc2nc3ccncc3n2Cc2cccc(F)c2)cc1)c1ccccc1 (configuration not stated) | inconclusive [phenotype inactive, single point]
